# Data reported in the supplement of paper PMC10322689.
# Where “and” joins values, the source holds several entries; their conditions need not be identical. Equal entries are not always repeated. Structures can show the parent of a compound that is named as a salt. ± gives the standard deviation of the averaged measurements. This is one part of the list. Repeats are few or missing, and single values can be far off.
# Tested on: mouse mesenchymal chondrosarcoma cells (HEY1-NCOA2)
# Test: XTT absorbance relative to DMSO control (cell viability) (fraction of DMSO control); higher = more viable cells / less growth inhibition
row,SMILES,XTT absorbance
1,Nc1cccc2c1CN(C1CCC(=O)NC1=O)C2=O (configuration not stated) [lenalidomide],0.937
2,COc1c(C=O)c(O)cc2c1C(=O)c1ccccc1C2=O [Damnacanthal],0.885 ± 0.021
3,"CC/C(=C(\c1ccccc1)c1ccc(OCCN(C)C)cc1)c1ccccc1 [Tamoxifen, citrate]",0.997
4,NC(=O)c1ccc(-c2nc(-c3ccccn3)c(-c3ccc4c(c3)OCO4)[nH]2)cc1,0.82 and 0.835
5,CS(=O)(=O)CCNCc1ccc(-c2ccc3ncnc(Nc4ccc(OCc5cccc(F)c5)c(Cl)c4)c3c2)o1 [lapatinib],1.08
6,O=C1Cc2c([nH]c3ccc(Br)cc23)-c2ccccc2N1 [Kenpaullone],0.882 ± 0.14
7,CC(C)CC(=O)N[C@H](C(=O)N[C@H](C(=O)N[C@@H](CC(C)C)[C@@H](O)CC(=O)N[C@@H](C)C(=O)N[C@@H](CC(C)C)[C@@H](O)CC(=O)O)C(C)C)C(C)C [Pepstatin A],0.938
8,CCOc1nc(NC(=O)Cc2cc(OC)ccc2OC)cc(N)c1C#N [JNK inhibitor VIII],0.913
9,Nc1cccc(-c2cc3c(Oc4cccc(O)c4)ncnc3[nH]2)c1,0.703
10,CC(C)(C)c1nc2c3cc[nH]c(=O)c3c3cc(F)ccc3c2[nH]1 [JAK Inhibitor I],0.881
11,CCCCCCCCCCCCCCOc1ccc(C(=O)O)o1,0.961
12,O=C1NC(=O)c2c1c1c3ccccc3[nH]c1n1cncc21 [isogranulatimide],1.01
13,C[C@@H](Oc1cc(-c2cnn(C3CCNCC3)c2)cnc1N)c1c(Cl)ccc(F)c1Cl [crizotinib],0.693
14,CC(=O)N[C@@H](CS)C(=O)O [N-Acetyl-L-cysteine],0.868
15,N#C/C(=C\c1ccc(O)c(O)c1)C(=O)NCc1ccccc1,0.858 ± 0.057
16,CC(C)[C@H](CO)Nc1nc(Nc2cccc(Cl)c2)c2ncn(C(C)C)c2n1 [purvalanol A],0.968
17,Cc1ccc(NC(=O)c2cccc(N(C)C)c2)cc1NC(=O)c1ccc(O)cc1,0.96
18,C=CC[C@@H]1/C=C(\C)C[C@H](C)C[C@H](OC)[C@H]2O[C@@](O)(C(=O)C(=O)N3CCCC[C@H]3C(=O)O[C@H](/C(C)=C/[C@@H]3CC[C@@H](O)[C@H](OC)C3)[C@H](C)[C@@H](O)CC1=O)[C@H](C)C[C@@H]2OC,0.949
19,NNCCc1ccccc1 [Phenelzine],0.975
20,Nc1nc(Nc2ccc(S(N)(=O)=O)cc2)nn1C(=S)Nc1c(F)cccc1F [Cdk1/2 inhibitor III],0.981
21,CCCCCCCCCCC[C@@H](C[C@@H]1OC(=O)[C@H]1CCCCCC)OC(=O)[C@H](CC(C)C)NC=O [orlistat],0.983
22,COCC[n+]1c2c(n(Cc3cnccn3)c1C)C(=O)c1ccccc1C2=O,0.351
23,CCN(CC)CCNC(=O)c1c(C)[nH]c(/C=C2\C(=O)Nc3ccc(Cl)cc32)c1C,0.742
24,COC(=O)CNC(=O)C(=O)OC [Dimethyloxalylglycine],0.939
25,Cc1nc(Nc2ncc(C(=O)Nc3c(C)cccc3Cl)s2)cc(N2CCN(CCO)CC2)n1 [dasatinib],0.575
26,Cc1cccc(-c2nn(C(=S)Nc3ccccc3)cc2-c2ccnc3ccccc23)n1,0.807
27,N#C/C(=C(/N)Sc1ccccc1N)c1cccc(C(O)c2ccncc2)c1 (configuration not stated) [MEK inhibitor I],0.892
